# From PubChem BioAssay AID504832 (National Center for Advancing Translational Sciences (NCATS), 2011)
# The whole screen tested about 310,000 compounds, of which about 18,000 (5.8%) were called active. Inconclusive results, whose numbers are uncertain, are shown with a selection of clear calls. The call rests on the fitted dose curve; in most records, active means well fitted inhibition curve with a large enough effect; inconclusive means small, poorly fitted or top-dose-only effect, or another doubt; inactive means no such curve, though single readings can be large or run the other way. No potency is given beside an inconclusive call; the fits are too rough.
# Test: Primary qHTS for delayed death inhibitors of the malarial parasite plastid, 48 hour incubation
# Conditions: P. falciparum luciferase growth in erythrocytes; series mostly up to 28.7 µM
# How it was run: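 In quantitative HTS format, infected erythrocytes bearing luciferase-reporter parasites were treated for a single generation at 37 C. Luminescence after adding detection reagent served as the growth measure.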
# Potency means the concentration at half of the fitted maximal effect; tags describe the fitted curve by direction and shape.
row,SMILES,Potency
1,O=C(CSc1ccccc1)Nc1nnc(COc2ccc(Cl)cc2)s1,inactive
2,O=C(OCC(=O)C12CC3CC(CC(C3)C1)C2)c1ccc(O)cc1O,inactive
3,CCCCn1c(SCC(=O)N(C)C2CCS(=O)(=O)C2)nc2cc(S(N)(=O)=O)ccc21 (stereo not given),inactive
4,C=CCNC(=S)NNc1ncnc2sc3c(c12)CC(C)(C)OC3,"inconclusive [inhibitor, partial curve, poor fit]"
5,O=C(COc1ccccc1F)Nc1ccc(-c2nc3ccccc3s2)cc1,inactive
6,COCCC(=O)N1CCC(Oc2ccc(C(=O)N(C)Cc3cc(C)no3)cc2)CC1,inactive
7,COc1ccc(-n2nnnc2SCC(=O)c2ccc(O)c(O)c2)cc1,"inconclusive [inhibitor, single point]"
8,COc1ccc(C(=O)NCc2nnc(SCC(=O)N3CCCCCC3)o2)cc1OC,inactive
9,COc1ccc(NC(=O)C2CCN(c3nc(-c4ccc(OC)cc4)no3)CC2)cc1,inactive
10,CCn1c(SCC(=O)Nc2nccs2)nnc1-c1ccc(S(=O)(=O)N2CCCCC2)cc1,"inconclusive [inhibitor, partial curve]"
11,COc1ccc(-c2nnc(SCC(=O)N3CCCC(C)C3)o2)c(OC)c1 (stereo not given),"inconclusive [inhibitor, partial curve, poor fit]"
12,Cc1ccc(C)c(N2CCN(C3CCCCC3NS(=O)(=O)c3ccccc3)CC2)c1 (stereo not given),"inconclusive [inhibitor, partial curve]"
13,O=C(Nc1cccc(S(=O)(=O)N2CCCCC2)c1)c1ccc(N2CCCC2=O)cc1,"inconclusive [inhibitor, partial curve, poor fit]"
14,COc1ccc(/C=N/NC(=O)/C(=C/c2ccccc2)CCO)cc1,"inconclusive [inhibitor, partial curve, poor fit]"
15,CC(=O)Nc1ccc(S(=O)(=O)Nc2ccc(Nc3ccccc3)cc2)cc1,inactive
16,CC(C)CC(C(=O)NC1CCCCC1)N(Cc1ccccc1)C(=O)c1snc(C(N)=O)c1N (stereo not given),"inconclusive [inhibitor, partial curve, poor fit]"
17,CN(CC(=O)NCCCc1ccccc1)Cc1ccc(Br)cc1,inactive
18,Cc1ccc(NS(=O)(=O)c2ccc(C)c(NC(=O)COc3ccc4ccccc4c3)c2)c(C)c1,"inconclusive [inhibitor, full curve, poor fit]"
19,C=C(C)COc1ccc(-c2n[nH]c(C)c2-c2ccc(Br)cc2)c(O)c1,"inconclusive [inhibitor, full curve]"
20,N#Cc1ccc(C23CC4(C2)[C@H](CN(Cc2ccc(C(F)(F)F)cc2)[C@@H]4c2ccccc2)C3c2ccc(Cl)nc2)cc1 (stereo not given in full),active: 11.7 µM
21,CN(C(=O)CSc1nnc(-c2ccccc2)c(-c2ccccc2)n1)C1CCS(=O)(=O)C1 (stereo not given),inactive
22,COc1ccc(-c2cc(-c3ccc(OC)cc3)c(C#N)c(SC)n2)cc1,inactive
23,O=c1[nH]cnc(O)c1C(c1ccc(Br)cc1)c1c(O)nc[nH]c1=O,"inconclusive [inhibitor, partial curve, poor fit]"

row,SMILES,Potency
1,CCOC(=O)/C=C(C)/C=C/CC(C)CCCC(C)C (stereo not given),inactive
2,O=C(CN1CCCC1)N1c2ccccc2Sc2ccccc21,"inconclusive [inhibitor, partial curve, poor fit]"
3,CCCn1c(C)cc(C(=O)COC(=O)c2cc(S(=O)(=O)NCC(C)C)c(Cl)cc2Cl)c1C,inactive
4,CCc1ccc(OCCOCC(O)CNC2CCCC2)cc1 (stereo not given),"inconclusive [inhibitor, partial curve, poor fit]"
5,Cc1c(Cl)c([N+](=O)[O-])nn1Cc1ccc(C(=O)N/N=C\c2cccc(Br)c2)o1,active: 9.28 µM
6,CCNc1oc(-c2ccc(OC)cc2)nc1S(=O)(=O)c1ccc(Br)cc1,"inconclusive [inhibitor, single point]"
7,Cc1c(C(=O)N2c3ccccc3Sc3ccccc32)cccc1[N+](=O)[O-],"inconclusive [inhibitor, single point]"
8,CCCCn1c(N)c(N(CCOC)C(=O)c2cc(CC)c(C)s2)c(=O)[nH]c1=O,"inconclusive [inhibitor, partial curve, poor fit]"
9,CCOC(=O)c1c(CN(CC)CC)n(-c2ccccc2)c2ccc(O)cc12,active: 8.28 µM
10,CCCCN1c2cc(C)c(O)cc2C(C(=O)OCC)C1C (stereo not given),active: 2.08 µM
11,COc1nnc(-c2ccc(N3CCOCC3)c(NC(=O)c3ccc(C)cc3)c2)c2ccccc12,"inconclusive [inhibitor, single point]"
12,COc1ccc(Cl)cc1NC(=O)CN(C(=O)c1ccco1)C1CCCCC1,"inconclusive [inhibitor, partial curve]"
13,CCCCOc1ccc(C(=O)CCN2CCOCC2)cc1,inactive
14,CCCCC(=O)NC(=S)Nc1cccc(Cl)c1N1CCCCC1,"inconclusive [inhibitor, partial curve, poor fit]"
15,Cc1ccc2c(c1)N(CC(=O)NC1CCCC(C)C1C)C(=O)c1cccnc1O2 (stereo not given),"inconclusive [inhibitor, single point]"
16,COc1ccc(CN(C(=O)c2ccco2)c2ccccc2)cc1,inactive
17,CCn1c(O)c(N=NC(=O)c2cccnc2)c2cc(Br)ccc21,active: 10.4 µM
18,COC(=O)c1ccccc1NC(=O)c1cccc(NC(=O)CSCc2ccccc2)c1C,"inconclusive [inhibitor, single point]"
19,Cc1ccc(C(=O)NCc2ccco2)cc1S(=O)(=O)N1CCCC1,active: 11.7 µM
20,CC1CC(C)CN(Cc2nc(N)nc(Nc3ccccc3)n2)C1 (stereo not given),"inconclusive [inhibitor, partial curve, poor fit]"
21,O=C(c1cccnc1)C1CCCN(Cc2nc(Cc3ccccc3F)no2)C1 (stereo not given),"inconclusive [inhibitor, partial curve]"
22,O=C(N/N=C/c1coc2ccc(Cl)cc2c1=O)c1cc(O)cc(O)c1,inactive
